Results published in paper PMC4336329 (PLoS ONE, 2015).
The whole screen tested about 310,000 compounds, of which about 14,000 (4.5%) showed an effect of 50% or more. The effect is printed as a negative number. Some of the results follow.

biological target: human ether-à-go-go-related gene (hERG) potassium channel (human, UniProt Q12809); experiment: primary screen, population patch clamp on CHO cells stably expressing hERG
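Further: peak tail current of the secondary pulse compared with the same well before compound.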

human ether-à-go-go-related gene (hERG) potassium channel, sequence (Q12809 whole entry, looked up): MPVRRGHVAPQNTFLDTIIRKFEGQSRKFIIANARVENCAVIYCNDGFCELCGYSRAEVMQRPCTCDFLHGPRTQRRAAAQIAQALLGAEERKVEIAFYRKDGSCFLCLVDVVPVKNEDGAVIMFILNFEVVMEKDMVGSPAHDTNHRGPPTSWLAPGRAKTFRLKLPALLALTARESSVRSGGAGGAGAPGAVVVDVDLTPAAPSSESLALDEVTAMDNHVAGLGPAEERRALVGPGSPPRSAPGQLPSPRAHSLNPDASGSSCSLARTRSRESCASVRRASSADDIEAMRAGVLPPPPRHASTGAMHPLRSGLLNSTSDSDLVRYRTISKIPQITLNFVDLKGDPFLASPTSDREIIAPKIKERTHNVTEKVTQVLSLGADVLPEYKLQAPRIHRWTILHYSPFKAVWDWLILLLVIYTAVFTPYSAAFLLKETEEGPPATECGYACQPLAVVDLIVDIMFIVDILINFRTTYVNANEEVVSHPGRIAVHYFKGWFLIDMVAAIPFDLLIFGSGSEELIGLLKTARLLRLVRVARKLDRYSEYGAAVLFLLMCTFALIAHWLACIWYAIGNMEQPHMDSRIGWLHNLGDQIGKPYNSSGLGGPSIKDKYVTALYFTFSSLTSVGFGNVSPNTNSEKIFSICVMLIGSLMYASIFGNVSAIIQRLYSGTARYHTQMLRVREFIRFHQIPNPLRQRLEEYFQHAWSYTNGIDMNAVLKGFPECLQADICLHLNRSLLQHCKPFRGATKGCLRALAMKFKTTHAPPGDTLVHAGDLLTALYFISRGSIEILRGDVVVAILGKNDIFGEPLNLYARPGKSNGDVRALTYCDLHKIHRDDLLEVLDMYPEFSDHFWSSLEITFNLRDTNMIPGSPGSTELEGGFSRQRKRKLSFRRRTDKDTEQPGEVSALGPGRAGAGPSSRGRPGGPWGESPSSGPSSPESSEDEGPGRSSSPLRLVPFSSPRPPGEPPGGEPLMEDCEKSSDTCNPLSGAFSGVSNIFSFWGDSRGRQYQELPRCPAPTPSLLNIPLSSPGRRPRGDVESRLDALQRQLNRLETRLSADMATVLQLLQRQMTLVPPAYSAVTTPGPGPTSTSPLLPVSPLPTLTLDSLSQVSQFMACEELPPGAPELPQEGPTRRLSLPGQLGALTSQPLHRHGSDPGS

SMILES	hERG current change (%, negative = inhibition) at 10uM [%]
O=C(Oc1ccc(Cl)cc1)c1ccc(N2CCOCC2)c([N+](=O)[O-])c1	-15.9
Cc1coc(C)c1C(=O)CC1(O)C(=O)N(CCc2ccccc2)c2ccccc21 (stereo not drawn)	3.21
CCOCc1c(C(=O)OCC(=O)NCc2ccc(F)cc2)oc2ccccc12	-23.6
CCCCCCCCCCCCOC1OC(CO)C(O)C(O)C1NC(C)=O (stereo not drawn)	-3.8
CCN(CC)S(=O)(=O)c1ccc(NCc2ccccc2)nc1	-11.3
CCCC(=O)Nc1ccc(Cl)c(-c2nc3ncccc3o2)c1	-13.3
Cc1ccc(NC(=O)CCNS(=O)(=O)c2ccc(Br)s2)cc1	13.7
CCSc1nc(N)c2c3c(sc2n1)CCC3	9.27
c1cc(-c2ccncc2)ccn1	20.9
COc1ccccc1CN1CC(C(=O)NCc2cccc(Cl)c2)CCC1=O (stereo not drawn)	-14.3
Cc1ccc(NC(=S)N2CCN(S(=O)(=O)c3c(F)cccc3F)CC2)cc1C	-17.6
Cc1c[nH]c2cccc(OCC(CNC(C)(C)C)OC(=O)c3ccccc3)c12.Cl (stereo not drawn)	1.02
CCCCCCCC(=O)NNC(=O)c1c(O)c2ccccc2n(CC)c1=O	15.6
COc1ccccc1C/C(N)=N/OC(=O)COc1ccc(C)cc1	-15.3
CC(C)Oc1ccc(/C=C(/NC(=O)c2ccccc2)C(=O)NC(Cc2ccccc2)C(=O)O)cc1 (stereo not drawn)	17.7
Cl.O=C(CCN1CCCC1Cc1ccccc1)c1ccc2c(c1)OCCO2 (stereo not drawn)	-46.4
C#Cc1ccc(C(=O)Nc2ccc(N3CCC(C)CC3)c(C(N)=O)c2)cc1	28.8
CCCN1C(=O)/C(=C/c2c(NCCCOC(C)C)nc3c(C)cccn3c2=O)SC1=S	-4.12
CCN(CC)C(=O)c1ccc(C(=O)c2c(C)cc(C)cc2C)cc1	-18.7
CC(=O)Nc1ccc(S(=O)(=O)NCc2ccc(C)cc2)cc1	-5.84
CN(C)S(=O)(=O)c1cccc(NC(=O)c2cccc(S(=O)(=O)N3CCCCC3)c2)c1	-27.9
COc1ccnc(Oc2ccc(F)cc2)c1C(=O)N/C=N/OCc1ccc(Cl)cc1Cl	23

SMILES	hERG current change (%, negative = inhibition) at 10uM [%]
O=C(NCc1ccc2c(c1)OCO2)C1CC(c2cccc(Br)c2)=NO1 (stereo not drawn)	-17
O=c1c2ccccc2nc(SCc2ccc([N+](=O)[O-])cc2)n1CCCO	-57.9
CCO/C=N/c1c(C#N)c2c(c(=S)n1C)COC(C)(C)C2	10.5
CCOc1ccc(Nc2oc(-c3cccc(Cl)c3)nc2C#N)cc1	20.7
COc1ccc(-c2nc3ccccc3c(=O)n2CC(C)C)cc1	23.7
CO/N=C/c1ccc(Sc2ccc(C)cc2)c([N+](=O)[O-])c1	4.74
Cc1ccc(S(=O)(=O)N(C)C)cc1NC(=O)C(C)OC(=O)/C=C/c1cccs1 (stereo not drawn)	-42.2
O=C(O)C1CCCN1S(=O)(=O)c1ccc(Br)cc1 (stereo not drawn)	12.9
CN(C)/C=C/C(=O)c1ccc(Oc2ccccc2)cc1	0.618
CCOc1cccc(NC(=O)/C(C#N)=C\c2cccnc2)c1	-5.73
Cc1ccc(C(=O)OCC(=O)Nc2cc(S(C)(=O)=O)ccc2Cl)cc1S(=O)(=O)N1CCCCC1	-26.9
COCCc1ncc(CN2CCC(C(=O)Nc3cccc(-c4cscn4)c3)CC2)cn1	-13.7
O=C(NCC(=O)N(c1cccnc1)C(C(=O)NCc1ccco1)c1ccccc1)c1ccco1 (stereo not drawn)	5.37
CC(=O)Nc1nn(C)c2nc(C)cc(C)c12	-4.02
CN1C(=O)CSc2ccc(NC(=O)NCCC3=CCCCC3)cc21	-4.93
CN(C)CCCNC(=O)C(=O)NCC1CCCO1 (stereo not drawn)	8.92
COc1ccc(CCOC(=O)CNC(=O)c2ccc(Cl)cc2Cl)cc1	7.08
Cc1ccccc1C(=O)Nc1nnc(CC(=O)N/N=C/c2ccco2)s1	15.8
CCOC(=O)CC(=O)CSc1ncnc2c1oc1ccccc12	5.2
CC(=O)NC(Cc1ccc(C)cc1)C(=O)NC1CCN(c2ncccc2[N+](=O)[O-])CC1 (stereo not drawn)	7.92
COc1ccc(N2CCN(C(=O)C(=O)c3c[nH]c4ccccc34)CC2)cc1	21.6
C=CCSc1nnc(NC(=O)c2nc(SCC)ncc2Cl)s1	-19.5

SMILES	hERG current change (%, negative = inhibition) at 10uM [%]
O=C(CC1NC2CCCCC2NC1=O)Nc1cccc(C(F)(F)F)c1 (stereo not drawn)	-3.61
O=C(c1cccs1)N1C2CCC1CC(O)(c1cccnc1)C2 (stereo not drawn)	-7.75
COc1ccccc1-c1cc(C(=O)N2CCCc3ccccc32)no1	-2.27
CC1CCCC(C)N1C(=O)CSc1nnc(NC(=O)c2cccs2)s1 (stereo not drawn)	12
COc1cc(Cl)c(C)cc1NC(=O)COc1ccccc1[N+](=O)[O-]	-5.53
O=S(=O)(Nc1nc2ccc(S(=O)(=O)N3CCCC3)cc2s1)c1ccc(F)cc1	-2.68
CC(C)C(=O)Nc1cccc(NC(=S)NC(=O)c2cccs2)c1	-20.9
Cc1ccc(N2CC(C(=O)Nc3nc4ccc(S(C)(=O)=O)cc4s3)CC2=O)cc1C (stereo not drawn)	-4.67
Cc1nc(C(=O)NCC(=O)c2ccccc2)c(C(F)(F)F)o1	9.34
COc1ccc(OC)c(/C=N/NC(=O)c2ccc[n+](CC(=O)c3ccccc3)c2)c1	15.3
Cc1ccc(C)c(NS(=O)(=O)c2ccc3c(c2)NC(=O)CCS3)c1	-15
Cc1ccc(S(=O)(=O)c2cn(C)c3cc(N4CCN(C)CC4)c(F)cc3c2=O)c(C)c1	-9.51
CCCCc1nnc(NC(=O)C2CC(=O)N(c3ccc(C)cc3)C2)s1 (stereo not drawn)	-1.26
O=C(CNC(=O)c1ccco1)NCC(=O)OCc1cccc(Cl)c1	-13
Cc1cccc(C)c1NC(=O)Cc1cccs1	8.03
O=C(Cc1cnn(-c2ccccc2)c1)c1ccc(O)c(O)c1O	-2.43
Cc1ccc(C(=O)Nc2ccccc2C(=O)N2CCN(c3ccccc3)CC2)cc1	1.79
CN(CC(=O)NCC1CCCCC1)CC(=O)Nc1ccc(F)cc1	-17.3
COc1ccc(OC)c(S(=O)(=O)NCc2cn3cccc(C)c3n2)c1	19.5
O=C(CSCc1ccc([N+](=O)[O-])cc1)NC1CCCCCC1	-50.8
Clc1ccc2nc(CSc3nncn3-c3ccccc3)cn2c1	-5.18
CC(=O)N1C(=O)/C(=C2\SC(=S)N(NC(=O)c3ccc(O)cc3)C2=O)c2ccccc21	9.51

SMILES	hERG current change (%, negative = inhibition) at 10uM [%]
CCc1ccc(NS(=O)(=O)c2cc3c4c(c2)CCN4C(=O)CC3)cc1	-8.2
CC(C)COP(=O)(c1ccc(N(C)C)cc1)C(O)c1ccccc1 (stereo not drawn)	12.8
O=C(/C=C/c1ccc(F)cc1)NCCC1=CCCCC1	-24.2
CC(c1ccco1)N(C(=O)c1ccccc1NS(=O)(=O)c1cccc([N+](=O)[O-])c1)c1ccccn1.Cl (stereo not drawn)	-7.23
Cc1[nH]c2ccccc2c1/C=N/NC(=O)C1CC1(c1ccccc1)c1ccccc1 (stereo not drawn)	11.7
COc1ccccc1OCCC(=O)NCc1ccc2c(c1)OCO2	-7.18
Cl.Oc1cccc(C(O)CNCc2ccc(OCc3ccc(Cl)cc3Cl)cc2)c1 (stereo not drawn)	7.89
CCN(CC)C(=O)c1ccc(NC(=O)c2cccc(F)c2)cc1	-8.83
COc1cccc(N2CCN(CC(=O)Nc3ccc(SC(F)F)cc3)CC2)c1	-65.5
COc1ccc(S(=O)(=O)N(C)CC(=O)NCc2ccc3c(c2)OCO3)cc1	-8.31
CC(C)c1ccc(Nc2nc(Cl)nc(NCCO)n2)cc1	-0.646
CCOc1ccccc1C1C(C#N)=C(N)Oc2cc(C)n(Cc3ccccn3)c(=O)c21 (stereo not drawn)	-5.58
c1ccc(Cn2nc(-c3ccccc3)nc2-c2ccccc2)cc1	-2.5
CCCOC(c1ccccc1)(c1ccccc1)C(Oc1nc(C)cc(C)n1)C(=O)O (stereo not drawn)	21.5
CC(Oc1ccccc1)C(=O)N/N=C/c1ccccn1 (stereo not drawn)	2.08
N#CCCn1cc(C(CC(=O)c2ccccc2)C(=O)O)c2ccccc21 (stereo not drawn)	4.55
COc1ccc2cc(C#N)c(N3CCN(Cc4nnnn4CCC(C)C)CC3)nc2c1	-0.299
COc1ccc(NC(=O)c2ccc(NS(=O)(=O)c3c(C)noc3C)cc2)cc1OC	23.2
CO/N=C/Cc1c([N+](=O)[O-])c(C)nn1C	8.6
COc1ccc2[nH]c(=O)c(CN(CCCN(C)C)C(=O)Nc3ccc(F)cc3)cc2c1	-65.7
COC(=O)c1cc2n(n1)CCN(Cc1cccc(OC)c1)C2=O	-4.91
